Assay results: the supplement of paper PMC10126150
Sequences with one replicate were seen in a single cluster, so their values are uncertain.

The sequences below were run on ATP (assay: switch fluorescence ratio, 500 uM ATP over buffer (Cy3 cluster intensity, sum of 5 cycles each) (fold (ratio)); higher = stronger signal-on switching upon ATP binding; sequences stand for … in TCGTCGGCAGCGTCAGATGTGTATAAGAGACAGTTTTTTTTTTTTTTTTTTTTTTTTT…TC). Conditions: aptamer strand: ATP DNA aptamer (quencher-CACCTGGGGGAGTATTGCGGAGGAAGG + anchor), 100 nM annealed; ATP concentration: 500 uM; one replicate.
Method in brief: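 Five buffer/ATP imaging cycles were run on Cy3-labelled switching-strand clusters on a modified Illumina MiSeq flow-cell, with NaOH stripping and re-annealing between cycles. In each cycle, clusters annealed to 100 nM quencher-labelled ATP aptamer were imaged in selection buffer, then after 15 min with 500 uM ATP at 22 °C. Per cluster, the fluorescence ratio is summed target-cycle over summed buffer-cycle Cy3 intensity, averaged per switch-domain sequence. Only clusters within 100-1000 RFU were kept.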
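Further: ATP exposure 15 min at 22 °C before imaging.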

Row | Sequence | switch fluorescence ratio
1 | GATAACACCT | 1.36
2 | GATAACCAAT | 0.983
3 | GATAACCGGA | 0.989
4 | GATAACGGGA | 0.929
5 | GATAAGGCTG | 1.01
6 | GATAAGGGAA | 1
7 | GATAAGGTGT | 1.21
8 | GATAATATAT | 0.989
9 | GATAATGAAA | 1.02
10 | GATACATT | 0.988
11 | GATACCCAAG | 1.08
12 | GATACCTGAG | 1.51
13 | GATACGATTT | 1.01
14 | GATACTATAG | 1
15 | GATACTCGAC | 1.45
16 | GATACTGCGA | 1.05
17 | GATAGAGTCC | 1.06
18 | GATAGCTTGG | 0.963
19 | GATAGGGTAG | 0.978
20 | GATAGGTCTC | 1.01
21 | GATAGGTTAT | 0.953
22 | GATAGTAGAA | 0.981
23 | GATAGTCACG | 1.02
24 | GATATACGAC | 1.3
25 | GATATATGGA | 1.01

Row | Sequence | switch fluorescence ratio
26 | GATATATTAG | 1
27 | GATATCTTTA | 1.01
28 | GATATGACA | 1.03
29 | GATATGCTCA | 0.995
30 | GATATGGTTT | 1.01
31 | GATATGTCGC | 1.01
32 | GATATTCCAA | 1.03
33 | GATCAATATT | 1.03
34 | GATCACATGG | 1.03
35 | GATCACGTGT | 1.02
36 | GATCACTTCA | 1.03
37 | GATCAGGGTG | 1.08
38 | GATCATATTG | 0.946
39 | GATCCAGATT | 1.01
40 | GATCCCGCTG | 1.3
41 | GATCCGCCGG | 1.12
42 | GATCCGCGGT | 1.22
43 | GATCCTGAAG | 1
44 | GATCCTGCCA | 1.04
45 | GATCGAATGC | 1.13
46 | GATCGAATGG | 1.04
47 | GATCGCAGAT | 1.02
48 | GATCGCGGTG | 1.04
49 | GATCGGCCTA | 1.01
50 | GATCGGGCGC | 1.06

Row | Sequence | switch fluorescence ratio
51 | GATCGTGAT | 0.992
52 | GATCTAGAAC | 1.01
53 | GATCTAGGGG | 0.975
54 | GATCTATTT | 1.04
55 | GATCTCATTA | 0.951
56 | GATCTGCCCC | 1.02
57 | GATCTGCTGT | 0.97
58 | GATCTGGCGT | 0.95
59 | GATCTGTGGC | 0.95
60 | GATCTTAAAC | 1.04
61 | GATCTTAATC | 0.94
62 | GATCTTACTT | 0.997
63 | GATCTTGTCC | 0.961
64 | GATCTTTGGT | 1.02
65 | GATGAATAAG | 0.941
66 | GATGAATGAA | 0.996
67 | GATGAATGCC | 0.967
68 | GATGACCACA | 1.1
69 | GATGACGCGG | 1.22
70 | GATGAGAATA | 1.01
71 | GATGAGAGAT | 0.97
72 | GATGAGGGCT | 1.05
73 | GATGAGGGTT | 1.27
74 | GATGAGTTAA | 1.03
75 | GATGATAAGG | 1.02

Row | Sequence | switch fluorescence ratio
76 | GATGATAGAG | 1
77 | GATGATAGTT | 0.923
78 | GATGATGGTA | 1.01
79 | GATGATGTGA | 0.968
80 | GATGCAACGC | 1.09
81 | GATGCCCAG | 0.971
82 | GATGCTATGC | 1.37
83 | GATGCTGCAG | 0.995
84 | GATGCTTTCT | 1.01
85 | GATGGACTCA | 1.16
86 | GATGGAGAGG | 0.984
87 | GATGGCACGC | 1.08
88 | GATGGCCAC | 1
89 | GATGGGCCGT | 1.07
90 | GATGGGGT | 0.99
91 | GATGGGTCAA | 0.964
92 | GATGGGTCGG | 0.936
93 | GATGGTACTT | 1.06
94 | GATGGTGCAC | 0.998
95 | GATGTACCTT | 1.1
96 | GATGTACGT | 1.02
97 | GATGTATAGT | 0.954
98 | GATGTCTTAG | 0.99
99 | GATGTGGGCC | 1.03
100 | GATGTGTCGT | 1

Row | Sequence | switch fluorescence ratio
101 | GATTAAAAGA | 1.16
102 | GATTAAATCA | 1.02
103 | GATTAACAC | 1.06
104 | GATTAAGCG | 1
105 | GATTAAGCGG | 0.959
106 | GATTAAGTCG | 0.931
107 | GATTAATCAC | 1.02
108 | GATTAATGCT | 1.01
109 | GATTACATAC | 1.5
110 | GATTACATTG | 1.01
111 | GATTAGGTCG | 1.02
112 | GATTATAAAA | 0.975
113 | GATTATATTC | 1.01
114 | GATTATGTAC | 1.08
115 | GATTATTGTC | 0.94
116 | GATTCAGTTG | 1.02
117 | GATTCATGTG | 1.02
118 | GATTCCCGCT | 1.14
119 | GATTCCCGG | 0.98
120 | GATTCCGGAT | 0.99
121 | GATTCGGGTG | 0.999
122 | GATTCTACTC | 1.02
123 | GATTGACAAA | 1.06
124 | GATTGAGGAT | 0.957
125 | GATTGCAGCT | 1.03

Row | Sequence | switch fluorescence ratio
126 | GATTGCGTTC | 0.967
127 | GATTGGAAAA | 1.01
128 | GATTGGGCG | 0.987
129 | GATTGGTTCT | 0.999
130 | GATTGTGAAA | 0.98
131 | GATTTATCAG | 1.04
132 | GATTTCCAAC | 1.03
133 | GATTTCGTGG | 1.01
134 | GATTTGCTTG | 1.02
135 | GATTTGTAGA | 1.02
136 | GATTTTCCCC | 0.989
137 | GATTTTCGGA | 1.07
138 | GATTTTTCGA | 0.989
139 | GCAAAACGCG | 1.01
140 | GCAAAAGCA | 1.03
141 | GCAAAAGCAT | 0.98
142 | GCAAAATCAG | 1.02
143 | GCAAACCATT | 1.02
144 | GCAAACGCTC | 1.27
145 | GCAAACTCGG | 1.15
146 | GCAAATACGA | 3.05
147 | GCAAATGAAG | 1.01
148 | GCAAATTAGT | 1.01
149 | GCAACAGGTT | 1.09
150 | GCAACCCCGC | 1.25

Row | Sequence | switch fluorescence ratio
151 | GCAACCGCGG | 0.986
152 | GCAACCTAGG | 1.03
153 | GCAACGGCCA | 1.03
154 | GCAACGTGTG | 0.992
155 | GCAAGAATGT | 1.01
156 | GCAAGAGGGC | 1.06
157 | GCAAGCATTT | 1.03
158 | GCAAGGACTT | 1.06
159 | GCAAGGTCCG | 1.1
160 | GCAAGTCTGG | 0.975
161 | GCAAGTTTGA | 1.03
162 | GCAATAAGGT | 1.08
163 | GCAATAGCTC | 3.81
164 | GCAATCACGG | 1.5
165 | GCAATCCAGG | 5
166 | GCAATGACAC | 2.49
167 | GCAATGTACG | 1.22
168 | GCAATTCACG | 1.27
169 | GCAATTGGGG | 0.996
170 | GCACAGAGGC | 1.07
171 | GCACAGGGAT | 1
172 | GCACCAAGCT | 1.04
173 | GCACCCAGAG | 1.52
174 | GCACCCCTGG | 1.35
175 | GCACCTATCG | 1.05

Row | Sequence | switch fluorescence ratio
176 | GCACGAAGGA | 1.05
177 | GCACGAGTAT | 1
178 | GCACGTATTG | 1.1
179 | GCACGTCGCC | 1.11
180 | GCACTCCCGT | 1.33
181 | GCACTCCGTC | 1.35
182 | GCACTCCTCT | 1.07
183 | GCACTCGG | 0.948
184 | GCACTTAGTA | 1.03
185 | GCACTTGATC | 0.964
186 | GCACTTGCCA | 1.05
187 | GCAGAAAAGG | 1.23
188 | GCAGAACACT | 1
189 | GCAGAATAT | 1.01
190 | GCAGAGTGGC | 0.999
191 | GCAGATAGGC | 1.02
192 | GCAGCCAGAG | 1.11
193 | GCAGCGCGAT | 1.09
194 | GCAGCGCTGT | 1.01
195 | GCAGCGTCAA | 1.01
196 | GCAGCGTGTG | 1
197 | GCAGCGTTGT | 1.02
198 | GCAGGCCCCG | 0.998
199 | GCAGGCGAGG | 1.03
200 | GCAGGCTGTA | 0.992
